Over roughly 33,000 sequences, “E-score (-0.5 to 0.5)” has its median near -0.054; the highest 2% begin near 0.39. Some of the results follow.
Each sequence was assayed against Ylr278c (UniProt Q05854) (assay: PBM E-score (8-mer binding enrichment) (E-score (-0.5 to 0.5)); higher = stronger / more preferred TF binding; most listed sequences are background and not binding sites). Conditions: protein concentration: 200 nM; construct: GST-DNA-binding domain.
In short: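 E-scores (a modified Wilcoxon-Mann-Whitney statistic) were assigned by the Universal PBM Analysis Suite to every ungapped eight-base word pooled with its reverse complement. The input came from universal all-10-mer Agilent arrays made double-stranded by primer extension and probed with GST-tagged yeast transcription factors at about 100-200 nM. Fluorescent anti-GST detected bound protein, and masliner normalised the scans.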

| Sequence | PBM E-score |
| --- | --- |
| AGGAATCA | -0.0846 |
| AATTCTAT | -0.243 |
| CCTTTGCG | 0.00026 |
| ACTGAATC | -0.182 |
| GAGTCGTA | -0.0963 |
| GGCCCGTA | 0.173 |
| GTTGTGTA | -0.159 |
| CCAATCAC | -0.106 |
| TCTAACAA | -0.2 |
| TCCCGGCA | 0.333 |
| CAAGAAAG | -0.0661 |
| CCACCCCC | -0.0149 |
| CTTGTATA | -0.0791 |
| AGGAACCA | -0.149 |
| AGTACTGC | -0.217 |
| ATGTGCTG | -0.0375 |
| GTCTGTGA | -0.222 |
| CTTTCATC | -0.135 |
| TCATACGA | -0.0489 |
| CGCGGCCC | 0.202 |
| GAGCTGAC | -0.0423 |
| CGGAAGAC | 0.334 |
| CTTTAGCA | -0.0846 |
| GCCTTAAA | -0.0692 |
| ACATGTGG | -0.0377 |

| Sequence | PBM E-score |
| --- | --- |
| AAGTTGGA | -0.188 |
| CGTTAGGA | 0.126 |
| CGGTTTAA | 0.12 |
| CATCAGAC | -0.149 |
| CACTATTA | 0.0057 |
| ACGCCCAT | 0.00399 |
| ACCCATGG | -0.00299 |
| CGATATTA | 0.176 |
| CCATGAGG | 0.0433 |
| GCAGAAAA | 0.0387 |
| ATTACTGC | 0.0346 |
| GTAGAGAA | -0.0517 |
| AGCTCCCA | -0.16 |
| ACCGTGCA | -0.0991 |
| AAAAACTC | 0.127 |
| CCAGAATA | -0.0334 |
| AACATCTA | -0.214 |
| CCAACTAA | -0.0336 |
| CACGGTCC | -0.0441 |
| CCACTTCA | -0.13 |
| CAGATTCA | -0.283 |
| ACCCTTCC | 0.124 |
| GTGGTAAA | 0.00807 |
| GATTCTGC | 0.0298 |
| GCGATCGA | 0.0931 |

| Sequence | PBM E-score |
| --- | --- |
| ATCAAACG | 0.0117 |
| ACTTCGGC | 0.286 |
| ATTGAAAA | 0.0694 |
| ATCCCGAT | 0.323 |
| GCTAATTA | 0.0306 |
| CCCAACAC | -0.0204 |
| ACTATAAT | -0.0937 |
| CACTATGA | -0.306 |
| AGGAAATC | 0.178 |
| ACGTTGCG | 0.0382 |
| CCACAAAA | -0.0463 |
| CCTGTAAC | -0.154 |
| GCCATAGC | -0.185 |
| AAATCATC | -0.0126 |
| AGACTCTG | -0.231 |
| AAAAATGT | 0.0376 |
| AATGATCC | 0.00784 |
| AGAACAAG | -0.0928 |
| AAGTAGCT | -0.302 |
| GTTGTATA | -0.18 |
| AAGAGGCA | -0.178 |
| CCAAGCAA | -0.208 |
| CACGTGCC | -0.1 |
| AGTTAGAG | -0.124 |
| CTGTTTCC | 0.0692 |

| Sequence | PBM E-score |
| --- | --- |
| AGAATTGA | -0.0344 |
| GTTAGTGA | -0.205 |
| ACGTGTGC | -0.36 |
| AAAGTCGG | 0.176 |
| TTATCCAA | 0.00093 |
| GACGGAAC | 0.192 |
| AGCAGTGG | -0.0331 |
| AGGTCTGA | -0.185 |
| CTGCGACC | -0.138 |
| AACGCCGA | 0.433 |
| AGCGGAAC | 0.333 |
| ATAGCGGA | 0.33 |
| GGACAATA | 0.138 |
| CTAGCTTA | -0.0476 |
| ACTCGAGG | -0.106 |
| AGAAAAAT | -0.0735 |
| CCTTGCCG | 0.0575 |
| GACAGCGC | 0.187 |
| ATCACAGC | -0.0699 |
| AATGGGCC | 0.0902 |
| CCCTGATC | 0.0512 |
| CTGTCATA | -0.302 |
| ACCGGTCG | 0.173 |
| CCCATCAC | -0.129 |
| CGAGAAGC | 0.101 |

| Sequence | PBM E-score |
| --- | --- |
| CCTGCTAC | -0.0899 |
| ACTCCGCA | 0.452 |
| ACAGAACA | -0.0986 |
| TAGGCGCA | -0.0323 |
| CCATGGCA | -0.0471 |
| GCGGAGTA | 0.449 |
| ACCCGGGA | 0.307 |
| CACAATCG | 0.0584 |
| GAAACAGC | 0.049 |
| CCGCTAAC | 0.194 |
| AGGTTACT | 0.0708 |
| CAATATCA | -0.144 |
| GTCAGAAC | -0.0451 |
| CAGCGGAA | 0.359 |
| GGAGTTAC | 0.399 |
| GACGATTA | -0.0026 |
| CCGACCCG | 0.271 |
| GAAGACGC | -0.0796 |
| CACCCCGG | 0.314 |
| AATCACAC | -0.055 |
| CTATCTTA | -0.0413 |
| GCTAAATA | -0.231 |
| CCGGGTGC | 0.283 |
| CAAATGTA | 0.135 |
| CTCAACAG | -0.24 |

| Sequence | PBM E-score |
| --- | --- |
| GAGTTTGC | 0.166 |
| CTAAGCTC | -0.179 |
| ATGGTGCG | -0.0428 |
| ACGGCCCT | -0.189 |
| CACTTAAG | -0.00775 |
| GCCCATGA | -0.125 |
| GCACGCCC | -0.00134 |
| AATCATGT | -0.25 |
| GGTCCTCA | 0.178 |
| AATGGCAG | -0.0973 |
| AGGTGACA | -0.211 |
| ACATAACA | -0.00458 |
| ATATTTGA | -0.231 |
| ATGCCTTA | -0.332 |
| AGTCACCA | -0.159 |
| CCCGTCTA | 0.0475 |
| GAGGGGAC | -0.0234 |
| CGATTAAC | 0.0875 |
| CATTACCG | 0.136 |
| ACAGACCG | 0.169 |
| ACACATCA | 0.0404 |
| TCTGGACA | -0.186 |
| ACTGTCTC | -0.162 |
| ACTTAAGT | -0.0988 |
| ACAGAGCG | -0.209 |

| Sequence | PBM E-score |
| --- | --- |
| ATTGTGCG | 0.0269 |
| AGGATTCG | 0.0905 |
| AGCTTCGA | -0.135 |
| CATGAGTA | -0.182 |
| ATTGCCGA | 0.278 |
| AGCCTGCA | -0.0771 |
| CTATATAG | -0.289 |
| CCAATTTA | 0.111 |
| AGAATGGA | -0.0313 |
| CTTCCCCA | -0.166 |
| CTAAAGTA | -0.14 |
| GGTGTACA | 0.0261 |
| AACGCCTC | -0.186 |
| CCAGTAAC | 0.0134 |
| CGCTTATC | -0.0789 |
| ACCCGTAG | -0.185 |
| ACAACCTC | -0.084 |
| ATCGCAAG | -0.113 |
| CAGGGGCG | -0.178 |
| AACGACCT | -0.0366 |
| CTGTGTGA | -0.0723 |
| CATTGCGG | 0.153 |

From the supplement of paper PMC3334620
